This note sets out measurements from article PMC7819943, “Rice protein-binding microarrays: a tool to detect cis-acting elements near promoter regions in rice”.

This is one part of the list.

The experiment deals with T1, OsWOX13 (Oryza sativa, UniProt Q5QMM3 1-267).
T1 sequence: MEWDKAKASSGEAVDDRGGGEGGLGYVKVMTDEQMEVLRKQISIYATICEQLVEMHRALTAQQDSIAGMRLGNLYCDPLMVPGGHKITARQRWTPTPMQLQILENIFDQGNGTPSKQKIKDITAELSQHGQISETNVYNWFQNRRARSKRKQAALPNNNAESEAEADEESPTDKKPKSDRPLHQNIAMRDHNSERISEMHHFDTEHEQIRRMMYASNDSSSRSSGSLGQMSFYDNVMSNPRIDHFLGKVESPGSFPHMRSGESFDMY
In words: protein-binding microarray (RPBM); PBS, 2% BSA, 51.3 ng/ul salmon testes DNA, 50 uM zinc acetate, 200 nM TF, 25 C, 1 h; high values mean tight binding. The settings on record: protein: recombinant; tags: N-terminal polyhistidine and DsRed monomer fusion (pET32a); label: CyDye5-dUTP incorporated in the synthesized complementary strand; 3' TTTTT single-stranded linker to array surface; dsDNA, one strand shown. Summed up: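 Transcription factors were each fused at the N-terminus to a polyhistidine tag plus DsRed and expressed in E. coli BL21-CodonPlus before Ni–NTA purification. Binding to a double-stranded custom Agilent array was carried out with 200 nM protein at 25 °C for 1 h in PBS, 2% BSA, salmon testes DNA and 50 µM zinc acetate. The binding signal is per-feature fluorescence intensity, in arbitrary units, on an Axon 4000B scanner.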
For the sequence “TTCCTGATTAACCGGATGAAACGGGAAGCTGCTAGTTTGTCGGAGTCACCTAGTGCAG”, the binding signal is 22000 fluorescence intensity (a.u.).
As to “CCAACTTCTGTCAATCTAATATCAGAAGTTCAGAACAAAGCGGAGTCACCTAGTGCAG”, the binding signal was 8780 fluorescence intensity (a.u.).
“CTCCTAAATTTAATATTAATATATAAAGCTGTATATAAAACGGAGTCACCTAGTGCAG”: the binding signal is 7880 fluorescence intensity (a.u.).
As to “AGCTTAAATTTAACTCTAAGAGTGGGTCTAAAGTGAAGATCGGAGTCACCTAGTGCAG”, the binding signal was 4970 fluorescence intensity (a.u.).
For the sequence “CTTATCACATACAGCTGATTATCATTAAACTCCTAACTTCCGGAGTCACCTAGTGCAG”, the binding signal was 7410 fluorescence intensity (a.u.).
Consider “CTAAATTACCTAGAAAATGCTTTTAAATGATAAATGGGCCCGGAGTCACCTAGTGCAG”, for which the binding signal is 22100 fluorescence intensity (a.u.).
“GCCTTATTACCATTTTCAGTGTTTACCTGATTTGAAAGCTCGGAGTCACCTAGTGCAG”: the binding signal is 3490 fluorescence intensity (a.u.).
In the case of “GGACCTGATTTGGACTCAAATCAGGTGTTGACGAATAGAGCGGAGTCACCTAGTGCAG” it was 14600 fluorescence intensity (a.u.).
On to “CTAAATGGAAAATGAGGAAATGATTAGTTTTCAATATTTGCGGAGTCACCTAGTGCAG”, for which the binding signal is 22100 fluorescence intensity (a.u.).
Consider “ACCATCTACTCTCAACCAATCACAACTATTCTCTTTACCTCGGAGTCACCTAGTGCAG”, for which the binding signal is 3870 fluorescence intensity (a.u.).
Regarding “TACTTTATTAATTGCCCCTTATTAAAAGTGATAAAACTAACGGAGTCACCTAGTGCAG”, the binding signal was 10600 fluorescence intensity (a.u.).
“CTCAGGCTGATTTGAAATTTACATATGTGGTTACTTGCCACGGAGTCACCTAGTGCAG”: the binding signal was 18700 fluorescence intensity (a.u.).
In the case of “GATGAAACGGAATTGAAGACAATTATTTGGGAGTGAATTACGGAGTCACCTAGTGCAG” it was 3240 fluorescence intensity (a.u.); in that of “CTCTCTTTCTTGGCCGTCTCTCTTATATCCCTCAATTTAACGGAGTCACCTAGTGCAG”, 3520 fluorescence intensity (a.u.).
To “TCTAATTAATGAACAACAGAATGTCTTCATTCAATTTGCCCGGAGTCACCTAGTGCAG” belongs 32500 fluorescence intensity (a.u.); to “GCTGACTAATTATGTAACAGGGGTCAAACAAGTAGGTGGACGGAGTCACCTAGTGCAG”, 20400 fluorescence intensity (a.u.); to “ATTTCTCAATATTGACAAATTTATTACCACAGATAGCAACCGGAGTCACCTAGTGCAG”, 5680 fluorescence intensity (a.u.).
In the case of “ATCTAAGCTCATCTCAACCAATCACAACCATCGTTGATTTCGGAGTCACCTAGTGCAG”, the binding signal was 3410 fluorescence intensity (a.u.).
With “AACTGACTATGACTGGTGGGCCCTTCGACCTACTCCCACTCGGAGTCACCTAGTGCAG”, the binding signal was 3730 fluorescence intensity (a.u.).
As for “AACTGATTAAAATCGCATGCTGTGCTGCCTCGTTGCTGCACGGAGTCACCTAGTGCAG”, the binding signal was 19900 fluorescence intensity (a.u.).
As to “CTGCTAATCACCGCCAATCTTGCATTGTTCTTTCTTTCGTCGGAGTCACCTAGTGCAG”, the binding signal is 28200 fluorescence intensity (a.u.).
To “CCGACGGCTCAGATTGACTGCAGTAGTGGGTATCTCTTCTCGGAGTCACCTAGTGCAG” belongs 13700 fluorescence intensity (a.u.); to “ATCAGAGCAGTTGATTTGATCGATCTCTTCCGCCGCCAAGCGGAGTCACCTAGTGCAG”, 4420 fluorescence intensity (a.u.); to “CGTAAATGCTCATCTTGACTGCAGGGCACGGATTTTCAACCGGAGTCACCTAGTGCAG”, 3950 fluorescence intensity (a.u.).
To “CATAATGATTGCGTTGAACGTTGGTTGCTTGATCATCTTTCGGAGTCACCTAGTGCAG” belongs 18600 fluorescence intensity (a.u.); to “AATCATAATTAGCATGTGTAGCTCACGCTAAAATTAAAAGCGGAGTCACCTAGTGCAG”, 7260 fluorescence intensity (a.u.); to “CTTGCTAATCAGTCAATAAACCTAATCAGGAGACACCAAACGGAGTCACCTAGTGCAG”, 16000 fluorescence intensity (a.u.).
Consider “TCTTAATTAGCCTTTGTGATTTAGCTTAATCACATGGCTACGGAGTCACCTAGTGCAG”, for which the binding signal was 34800 fluorescence intensity (a.u.).
As for “AACCTAATTATTCTATGATTTGGTAATATGGTGCTTAAATCGGAGTCACCTAGTGCAG”, the binding signal was 34300 fluorescence intensity (a.u.).
On to “TTGGTTGGTTGGTTGATTGCTCGCGCCCCGCGCGGTTGCGCGGAGTCACCTAGTGCAG”, for which the binding signal is 6680 fluorescence intensity (a.u.).
In the case of “CCCTACATTTATAATAATTAACGAATTCACCCTCCTGACCCGGAGTCACCTAGTGCAG” it was 10300 fluorescence intensity (a.u.); in that of “CAACCTGCCAATCATGCATTGGGCCAGCCATCAGGCTACTCGGAGTCACCTAGTGCAG”, 11300 fluorescence intensity (a.u.); in that of “GACCAAAATTGACTGGCACCAAACATTTTAAAGCTATTGGCGGAGTCACCTAGTGCAG”, 41400 fluorescence intensity (a.u.).
As to “ATTTCAATTACTCACAGGATGATCCACTGGGCTTTACGGGCGGAGTCACCTAGTGCAG”, the binding signal is 15100 fluorescence intensity (a.u.).
In the case of “TTGAGTGATTATTGACCATATAGCTTGAGTACTTTTATGGCGGAGTCACCTAGTGCAG” it was 27100 fluorescence intensity (a.u.); in that of “ACAGATTAGACACCAAATTTTCTGTCGACTGAGACAGATACGGAGTCACCTAGTGCAG”, 20700 fluorescence intensity (a.u.).
As to “TCATCAATTATTTATACTCACTTTATTCGAATTGGCGCATCGGAGTCACCTAGTGCAG”, the binding signal is 33400 fluorescence intensity (a.u.).
To “TTTCATGTGATTTAAGAAACTAAATCTGTTCATGTGAAGACGGAGTCACCTAGTGCAG” belongs 3830 fluorescence intensity (a.u.); to “CGGCCACATAATTAATTAACCTAACACAGAAGATTGATCACGGAGTCACCTAGTGCAG”, 16500 fluorescence intensity (a.u.).
To “CAAGATTTGGAGGTAGATTTTCTGTCAACAGATCGTTAGCCGGAGTCACCTAGTGCAG” belongs 9160 fluorescence intensity (a.u.); to “TTACACTAAATTACATTCACTCTTACATTGCAATTACACCCGGAGTCACCTAGTGCAG”, 7900 fluorescence intensity (a.u.).
As for “TAATAATTTAATGGAGAAGGGATCATAACTAATTGCCTACCGGAGTCACCTAGTGCAG”, the binding signal was 15300 fluorescence intensity (a.u.).
